In the supplement of paper PMC3334620:
The full ranking holds about 33,000 sequences; the median of “E-score (-0.5 to 0.5)” is about -0.054, and the highest 2% start at about 0.39. This is one part of the list.

What follows are sequences tested against Ylr278c (UniProt Q05854) (assay: PBM E-score (8-mer binding enrichment) (E-score (-0.5 to 0.5)); higher = stronger / more preferred TF binding; most listed sequences are background and not binding sites). Details: protein concentration: 200 nM; construct: GST-DNA-binding domain.
How it was run: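 GST-tagged yeast TFs (full-length or DNA-binding domain) were made by PURExpress in vitro transcription/translation and applied at about 100-200 nM to universal all-10-mer Agilent arrays. The arrays were made double-stranded by primer extension, on fresh or once-stripped slides. Bound protein was detected with fluorescent anti-GST, and scans were normalised with masliner. Each ungapped eight-base word, pooled with its reverse complement, received an E-score (modified Wilcoxon-Mann-Whitney statistic) from the Universal PBM Analysis Suite.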

Sequence | PBM E-score
CGAACACG | 0.052
CCCACGCG | 0.0351
CGAAGTCG | 0.068
ACCATAGG | -0.247
GAGTTAGA | 0.00623
AATAAAAA | -0.0113
GATGGTAA | -0.181
GACAGAGA | -0.0753
CGACGTCG | 0.035
GATTATCA | -0.0144
AGTTGGCG | 0.116
AGGTAGCA | -0.197
GGTAATAA | 0.137
AGAGTCAA | -0.126
AGCAATAT | -0.0716
CTAATTAC | -0.0256
CGAAGCCG | 0.299
ACATGCTA | -0.25
CATGGGAA | -0.00467
ATGTACGG | 0.0545
CTTGTGGA | -0.266
CGCGTTTA | 0.125
AAGGAGAC | -0.214
ACTAAAGG | -0.26
ATTCACAA | 0.0169

Sequence | PBM E-score
CCCCTTCC | 0.00101
CGCACGCG | 0.124
GAATGGGC | 0.00577
CAGAGCAC | -0.123
GGGGGCAC | -0.138
GATCTGGC | 0.0483
ATCGGTGG | 0.13
ATCCGATG | 0.323
AGGGCCCA | 0.00775
ACCCATCA | -0.176
AACTGGCT | -0.199
CGAAGGCC | 0.127
AGAGCGGG | 0.0486
AATAAATC | -0.0705
CCTAATCC | 0.0242
AAAAGGCG | -0.156
GATAAGGC | -0.0603
GAGTTGAA | 0.0762
GTCCCCTA | -0.196
CATACGAA | -0.0505
CTTCCCGC | 0.148
AGTGAACT | -0.0578
ATACGTGG | -0.203
GGTTTGAC | 0.0439
CGTAGAAG | -0.039

Sequence | PBM E-score
TAAATCCA | -0.185
CTTCATTC | -0.0517
ATATCTGG | -0.0167
ACTACGAC | -0.0488
CTCCGCAG | 0.418
GCATATAA | -0.0828
CTCGCTCA | -0.126
CTGCCTTA | -0.132
ATCGGATA | 0.393
CACATTGC | -0.0898
CACCCTAC | -0.222
CTGGCGCC | -0.00499
CGTGATCC | -0.0838
CTGAGCTC | 0.0823
CGGGGAGA | 0.238
CCCTAAAG | -0.135
TACCAGGA | -0.0496
AACCTCAG | -0.0309
AAGCAAGG | -0.0604
ATGTAGCA | -0.0623
TAAAGTCA | -0.151
CAAAAGAC | -0.14
ACTATATG | -0.0969
TTAGTGAA | -0.106
AGAATCGG | 0.24

Sequence | PBM E-score
CAAGGCCC | 0.00531
GAGGATGC | 0.0373
GATGCCCA | 0.0254
CGCAAAAG | -0.00356
TATTGCAA | 0.171
CGTACCTA | -0.132
GGAAGCAC | 0.0988
AGGGGAAT | 0.117
CGACTCAC | 0.0265
CATATCCC | 0.141
CTAGAGAA | -0.0653
CTTAGAGA | -0.14
CCGCCAAA | 0.263
AACTACAC | -0.0892
CCACCCAG | -0.0325
TACACAAA | 0.0722
GCTCTTAA | -0.138
GGGGTAGA | 0.0892
CCTGTGAA | -0.144
GATAGTCA | -0.0752
GTATGGAA | -0.154
AATAGCTA | -0.0483
ATCTATAA | -0.18
AAAGCATA | -0.0825
GGGCTCCA | -0.118

Sequence | PBM E-score
CATATTCC | 0.179
CAGGTACA | -0.0635
CCCGGGGC | 0.317
ATGTACAC | -0.23
GAACCATC | -0.00377
CACGCGGA | 0.379
CCCTGACG | 0.0697
GCGGATAA | 0.314
AACTCAGT | -0.15
GACCAAAA | 0.0958
CGGCTCAA | 0.0909
TCACCTCA | -0.179
TATTGTAA | -0.13
GGATTCAC | 0.144
ATTGGCTG | -0.194
AGGCCTCC | -0.0758
GCTAACCA | -0.145
AGCCCTAG | -0.139
ATGCTAAT | -0.104
CATTAAAA | 0.14
CGTGATGA | -0.315
GAGCTTAC | 0.0501
GGAGGCCC | 0.175
CGCCGGGC | 0.378
AAGTCGCT | -0.163

Sequence | PBM E-score
CTTCGAGC | 0.197
AAAATCTC | -0.109
CTGACCAC | -0.167
GCCAAGAC | -0.173
ATTCGCCA | -0.0788
AGAGCAGG | -0.15
TATCGAGA | -0.189
CCCAGGGG | -0.172
ACAAGACT | -0.21
GGTAGCCA | -0.186
GGTTGCGA | -0.00595
CGGGGTTA | 0.437
AAGTTGCG | 0.135
AATGTTGC | -0.0969
ATAGCAAT | -0.0301
CCCGCTCC | 0.197
CAGGCACG | 0.0257
AGATTGGC | -0.0621
AAGGCCGC | 0.188
CTTGATTA | -0.0445
CTATATCA | -0.0773
GGTGGACA | 0.113
AAATTCGG | 0.282
ATAGAGTG | -0.0286
ACGTTCGA | -0.254

Sequence | PBM E-score
AAAATGTA | -0.0708
ATGACCAG | -0.212
AGATGAAC | 0.0555
TAGGGAAA | 0.0311
CTGTGTAA | -0.19
AATCATAT | -0.126
CAGGATAC | -0.171
CTTTCATA | -0.103
AAGCCTCC | 0.0849
GTGACAAC | -0.0332
GCTAGAGA | -0.175
AAAATAGG | 0.0857
CCGGCGCC | 0.422
GAGATGAA | 0.073
GAAAGACC | -0.0525
CGACTCTC | -0.0349
ACGGTTCG | 0.116
GACGTTAA | -0.017
TCAACTAA | -0.103
ACGATAGG | -0.0767
AGAGTAAC | 0.0213
GTCTGGCA | 0.00936
